{
  "source": "PubChem BioAssay AID1347165",
  "about": "(National Center for Advancing Translational Sciences (NCATS), 2019)",
  "note": "Values joined by “and” are separate entries in the source; they are usually repeats but may differ in a detail not shown here. Equal values may be shown once. In all, about 220,000 compounds went through this assay and about 5,700 (2.6%) were called active. Inconclusive means that the source gave no clear call. Such entries were picked first, then a sample of the others. Calls follow the shape of the dose curve; as a rule, active = well fitted inhibition curve with a large enough effect; inconclusive = small, poorly fitted or top-dose-only effect; inactive = no such curve, though single readings can be large or run the other way. A potency beside an inconclusive call is a rough fit, not a confirmed value. Potency is read from the fitted curve at half-maximal effect; tags tell the direction and shape of the fitted curve.",
  "data": [
    {"biological_target": "Lysine-specific demethylase 5B (Homo sapiens) (UniProt Q9UGL1)", "sequence (Q9UGL1 whole entry, looked up)": "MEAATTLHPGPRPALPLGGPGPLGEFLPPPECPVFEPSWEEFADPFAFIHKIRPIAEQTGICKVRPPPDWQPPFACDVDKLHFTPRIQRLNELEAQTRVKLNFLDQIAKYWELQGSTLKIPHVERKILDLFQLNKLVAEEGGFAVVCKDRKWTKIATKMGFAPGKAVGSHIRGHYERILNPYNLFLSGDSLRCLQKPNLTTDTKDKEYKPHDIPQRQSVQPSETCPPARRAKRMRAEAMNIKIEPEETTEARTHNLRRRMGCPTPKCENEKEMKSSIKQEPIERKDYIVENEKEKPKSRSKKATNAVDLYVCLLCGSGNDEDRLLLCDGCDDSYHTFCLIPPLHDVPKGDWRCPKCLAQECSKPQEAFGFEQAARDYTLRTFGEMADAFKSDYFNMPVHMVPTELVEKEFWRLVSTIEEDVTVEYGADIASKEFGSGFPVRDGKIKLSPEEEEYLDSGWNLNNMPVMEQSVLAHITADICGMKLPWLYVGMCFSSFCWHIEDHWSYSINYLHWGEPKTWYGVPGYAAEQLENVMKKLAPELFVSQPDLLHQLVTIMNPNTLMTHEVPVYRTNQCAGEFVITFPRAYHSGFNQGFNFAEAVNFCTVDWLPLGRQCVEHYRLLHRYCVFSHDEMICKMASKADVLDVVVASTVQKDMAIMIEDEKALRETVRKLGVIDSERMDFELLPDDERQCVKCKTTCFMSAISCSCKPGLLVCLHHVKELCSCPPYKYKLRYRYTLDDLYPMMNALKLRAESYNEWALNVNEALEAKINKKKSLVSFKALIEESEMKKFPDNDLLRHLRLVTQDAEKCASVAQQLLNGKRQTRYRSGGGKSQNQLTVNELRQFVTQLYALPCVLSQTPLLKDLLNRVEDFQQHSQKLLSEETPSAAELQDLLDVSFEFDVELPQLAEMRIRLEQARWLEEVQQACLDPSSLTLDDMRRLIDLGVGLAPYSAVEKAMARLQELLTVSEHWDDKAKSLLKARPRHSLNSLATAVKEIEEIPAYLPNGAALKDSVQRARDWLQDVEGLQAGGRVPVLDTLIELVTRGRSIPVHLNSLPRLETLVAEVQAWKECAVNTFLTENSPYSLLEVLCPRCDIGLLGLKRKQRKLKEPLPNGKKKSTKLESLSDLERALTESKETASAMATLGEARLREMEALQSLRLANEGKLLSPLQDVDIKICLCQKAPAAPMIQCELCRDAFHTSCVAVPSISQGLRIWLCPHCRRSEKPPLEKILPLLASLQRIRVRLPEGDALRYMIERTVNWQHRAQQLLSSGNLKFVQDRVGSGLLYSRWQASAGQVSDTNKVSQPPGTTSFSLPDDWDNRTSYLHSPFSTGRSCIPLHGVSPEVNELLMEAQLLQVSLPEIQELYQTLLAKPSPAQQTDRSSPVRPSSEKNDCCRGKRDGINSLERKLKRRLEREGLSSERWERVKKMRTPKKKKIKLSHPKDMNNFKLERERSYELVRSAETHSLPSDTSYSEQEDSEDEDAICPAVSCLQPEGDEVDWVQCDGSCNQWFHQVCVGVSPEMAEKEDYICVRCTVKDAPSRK", "assay": "Primary screen for KDM5B Histone Demethylases FDH-coupled qHTS; also: nearly all actives have a fitted effect of over 70% in size; as to activity change, negative = inhibition: 0% is about no effect", "settings": "FDH-coupled NADH fluorescence (FDH is formaldehyde dehydrogenase); activity change, negative = inhibition: at 57.7 µM (top of the series) unless noted", "how_it_was_run": "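KDM5BΔAP (200 nM final) in 50 mM HEPES pH 7.5, 0.01% Tween-20 was preincubated 10 min at RT with compound over a concentration range. Substrate mix (H3K4me3 12.5 µM, α-KG 25 µM, Fe²⁺, ascorbate, NAD⁺, FDH) was added, and NADH fluorescence change over 30 min gave dose-response curves.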", "values": [
      {"compound": "c1ccc(-c2nc3cnccn3c2Nc2ccc3c(c2)OCCO3)cc1", "activity change, negative = inhibition": "inactive: -9.02%"},
      {"compound": "O=C(Nc1ccccc1)c1cnc2c(c1)N(C(=O)Cc1ccc(O)cc1)CCC2", "Potency": "inconclusive: 35.5 µM [inhibitor, partial curve]"},
      {"compound": "COc1cccc(-c2n[nH]c3c2CC(=O)N(CC2CCOCC2)C3)c1", "Potency": "inconclusive: 56.2 µM [inhibitor, partial curve, poor fit]"},
      {"compound": "CCCc1ccc2oc(C(=O)N(C)CCC3CCCCO3)c(C)c2c1", "note": "(stereo not drawn)", "activity change, negative = inhibition": "inactive: 8.52%"},
      {"compound": "Cc1ccc(C)c(NC(=O)CSc2nccn2Cc2ccccc2Cl)c1", "activity change, negative = inhibition": "inactive: 11.2%"},
      {"compound": "Cc1ccc(C(=O)N2CCC3(CC2)NC(=O)N(c2ccc(F)cc2)N3)c(C)c1", "Potency": "inconclusive: 11.2 µM [inhibitor, partial curve]"},
      {"compound": "COC(=O)c1ccc(Cl)cc1NC(=O)NC(C)c1c(-n2cccc2)sc(C)c1C", "note": "(stereo not drawn)", "Potency": "inconclusive: 25.1 µM [inhibitor, partial curve, poor fit]"},
      {"compound": "O=C(Nc1cccc(Cl)c1)c1cnc(N2CCCCC2)c2ccccc12", "Potency": "inconclusive: 25.1 µM [inhibitor, partial curve, poor fit]"},
      {"compound": "CC1Oc2ccc(NC(=O)c3ccccc3F)cc2CN(Cc2ccccc2F)C1=O", "note": "(stereo not drawn)", "Potency": "inconclusive: 25.1 µM [inhibitor, partial curve, poor fit]"},
      {"compound": "COc1ccc(CN2Cc3[nH]cnc3C[C@H]2c2nc(Cc3ccccc3)no2)cc1", "Potency": "inconclusive: 31.6 µM [inhibitor, single point]"},
      {"compound": "COc1ccc(Nc2cc(C(=O)NCC(OC)OC)c3ccccc3n2)cc1OC", "activity change, negative = inhibition": "inactive: 40.5%"},
      {"compound": "COc1ccc(NC(=O)CCc2nc3cccnc3n2-c2ccccc2)cc1Cl", "Potency": "inconclusive: 1.26 µM [inhibitor, full curve, poor fit]"},
      {"compound": "COc1cccc(C(Nc2ncc(C(F)(F)F)cc2Cl)c2nccn2C)c1", "note": "(stereo not drawn)", "activity change, negative = inhibition": "inactive: 17%"},
      {"compound": "O=C(Nc1ccccc1)c1cccnc1NCc1ccccc1", "activity change, negative = inhibition": "inactive: -19.1%"},
      {"compound": "CC(C)c1ccc(C2c3c(oc4ccc(Cl)cc4c3=O)C(=O)N2CCCN2CCOCC2)cc1", "note": "(stereo not drawn)", "Potency": "inconclusive: 31.6 µM [inhibitor, single point]"},
      {"compound": "Cc1ccc(C2=CC(c3ccc(Cl)cc3)n3nc(-c4ccc(C)cc4)nc3N2)cc1", "note": "(stereo not drawn)", "Potency": "inconclusive: 28.2 µM [inhibitor, partial curve, poor fit]"},
      {"compound": "COc1ccc(S(=O)(=O)NCc2ccco2)cc1C(C)(C)C", "activity change, negative = inhibition": "inactive: 9.12%"},
      {"compound": "COc1cc(NC(=O)CN2C(=O)C(c3ccc(Cl)cc3)=NC23CCCCC3)cc(OC)c1", "Potency": "inconclusive: 0.891 µM [inhibitor, full curve, poor fit]"},
      {"compound": "Oc1ccccc1CN1CCC(O)(c2csc(CN3CCc4ccccc4C3)n2)CC1", "Potency": "inconclusive: 25.1 µM [inhibitor, partial curve, poor fit]"},
      {"compound": "Cc1cc2c(cc3c(SCc4cccc(F)c4)nnc(C)n32)o1", "Potency": "inconclusive: 14.1 µM [inhibitor, partial curve, poor fit]"},
      {"compound": "CCOC(=O)N1CCN(C(=O)CCc2ccc(S(=O)(=O)NCC(C)C)cc2)CC1", "activity change, negative = inhibition": "inactive: 13.4%"},
      {"compound": "CC1(CCCCN2CCOCC2)COc2ccc(C(=O)NCc3cccc(F)c3)cc2N1", "note": "(stereo not drawn)", "Potency": "active: 28.2 µM"},
      {"compound": "COCC1CN(C2CCC2)CC12CCN(C(=O)c1ccco1)CC2", "note": "(stereo not drawn)", "Potency": "inconclusive: 14.1 µM [inhibitor, partial curve]"},
      {"compound": "COc1ccc(C(=O)N[C@@H]2CCC[C@@H]2C(=O)NCCCN(C)C)cn1", "activity change, negative = inhibition": "inactive: -16.4%"},
      {"compound": "O=C(Cn1ccn2nc(-c3ccccc3)c(CO)c2c1=O)Nc1cccc(F)c1", "Potency": "active: 17.8 µM"},
      {"compound": "Cc1nn2c(c1-c1ccccc1-c1ccccc1)N(C(=O)Cc1ccccn1)CCC2", "Potency": "inconclusive: 35.5 µM [inhibitor, partial curve, poor fit]"},
      {"compound": "CC(C)CCN1CCn2c(nn(-c3ccc(C(F)(F)F)cc3)c2=O)C1", "activity change, negative = inhibition": "inactive: -8.65% [at 115 µM]"},
      {"compound": "O=c1c2c(CO)c(-c3ccc(F)cc3)nn2ccn1Cc1ccccc1Cl", "Potency": "inconclusive: 31.6 µM [inhibitor, single point]"},
      {"compound": "COc1ccc(OCC2(C)COc3ccc(C(=O)NC4CCOCC4)cc3N2)cc1", "note": "(stereo not drawn)", "Potency": "active: 25.1 µM"},
      {"compound": "Cn1nc(C(=O)OCC(=O)NC(C)(C)C)c2ccccc2c1=O", "activity change, negative = inhibition": "inactive: -8.59%"},
      {"compound": "O=C(c1ccc(F)cc1)c1ccc(N2CCCCCC2)cc1", "Potency": "inconclusive: 39.8 µM [inhibitor, single point]"},
      {"compound": "COc1ccc(CCNC(=O)c2cc3c(-c4ccc(OC)c(OC)c4)nn(C)c3s2)cc1OC", "Potency": "inconclusive: 35.5 µM [inhibitor, partial curve, poor fit]"},
      {"compound": "CCc1c(C)sc(NC(=O)CCCl)c1C#N", "activity change, negative = inhibition": "inactive: -32.6%"},
      {"compound": "Cc1ccc(CNC(=O)c2cc(-c3ccc(C)o3)nc3ccccc23)cc1", "Potency": "inconclusive: 20 µM [inhibitor, partial curve, poor fit]"},
      {"compound": "CCN(CC(=O)NC(C)C)C(=O)CSc1nc2ccccc2o1", "activity change, negative = inhibition": "inactive: 10.2%"},
      {"compound": "CSc1nc(N)c2c(n1)NC1=C(C(=O)CC(C)(C)C1)C2c1ccncc1", "note": "(stereo not drawn)", "Potency": "inconclusive: 25.1 µM [inhibitor, partial curve, poor fit]"},
      {"compound": "Cc1ccc(-c2cccc(CN)c2)cc1Cl", "activity change, negative = inhibition": "inactive: -13.2% [at 149 µM]"},
      {"compound": "N#CCSc1n[nH]c2nc3c(c(=O)n12)C1(CCCCC1)Cc1ccccc1-3", "Potency": "inconclusive: 28.2 µM [inhibitor, partial curve, poor fit] and inconclusive: 1.78 µM [inhibitor, full curve, poor fit]"},
      {"compound": "O=C(C1CCCC1)N1CC2(CCN(CC3CCCCC3)C2)Cc2ccccc21", "note": "(stereo not drawn)", "Potency": "inconclusive: 50.1 µM [inhibitor, partial curve]"},
      {"compound": "CC(C)(C)c1cnc(CN2CCCC2c2ccc[nH]2)o1", "note": "(stereo not drawn)", "activity change, negative = inhibition": "inactive: -24.8%"},
      {"compound": "Cc1noc(-c2cn(C3CCCN(C(=O)c4cccc(F)c4)C3)nn2)n1", "note": "(stereo not drawn)", "activity change, negative = inhibition": "inactive: -3.53%"},
      {"compound": "CCc1nc2c(=O)n(CC(=O)NC(C)c3ccccc3)nc(C)c2s1", "note": "(stereo not drawn)", "activity change, negative = inhibition": "inactive: 9.2%"},
      {"compound": "COc1cccc(NC(=O)N2CCC(c3cc(-c4cccc(C)c4)n[nH]3)CC2)c1", "activity change, negative = inhibition": "inactive: -13.8%"},
      {"compound": "Cc1cc(=O)n2c3ccccc3nc2n1CC(=O)c1ccccc1", "activity change, negative = inhibition": "inactive: 8.17%"},
      {"compound": "COc1ccc(CC(=O)Nc2ccc3nc(Nc4cccc(Cl)c4)cc(C)c3c2)cc1", "Potency": "inconclusive: 14.1 µM [inhibitor, partial curve, poor fit]"},
      {"compound": "CCOC(=O)C1CCCN(c2c(C(=O)c3ccc(C)cc3)cnc3ccc(OCC)cc23)C1", "note": "(stereo not drawn)", "Potency": "inconclusive: 44.7 µM [inhibitor, single point]"},
      {"compound": "O=C(Cc1ccccc1)N1CCCN(c2cc(-c3ccc(Cl)cc3)[nH]n2)CC1", "Potency": "inconclusive: 14.1 µM [inhibitor, partial curve]"},
      {"compound": "Cc1ccc(Nc2c(-c3ccc(N4CCOCC4)cc3)nc3c(C)cccn23)cc1", "Potency": "inconclusive: 3.98 µM [inhibitor, full curve, poor fit]"},
      {"compound": "Cc1ccccc1OCCCCn1c(C2CC(=O)N(c3ccccc3Cl)C2)nc2ccccc21", "note": "(stereo not drawn)", "activity change, negative = inhibition": "inconclusive: -40% [inhibitor]"},
      {"compound": "CC(=O)Nc1ccc(C(=O)NC2CCC3CCCCC3C2)s1", "note": "(stereo not drawn)", "activity change, negative = inhibition": "inactive: 10.9%"},
      {"compound": "O=C(NCc1ccccc1)c1nc2c(o1)CCN(Cc1ccc(F)c(Cl)c1)CC2", "Potency": "active: 28.2 µM"},
      {"compound": "Cn1cc(C(=O)NC2CCN(Cc3ccccc3)CC2)c2ccccc21", "activity change, negative = inhibition": "inactive: -21.6%"},
      {"compound": "C=Cc1ccc(Cn2c(C(=O)O)c(CNCCc3ccccc3)c3ccc(C)cc32)cc1", "Potency": "inconclusive: 39.8 µM [inhibitor, single point]"},
      {"compound": "COc1cc(NS(=O)(=O)c2ccc3[nH]c4c(c3c2)CCCC4)cc(OC)c1OC", "Potency": "inconclusive: 7.08 µM [inhibitor, partial curve, poor fit]"},
      {"compound": "CCc1cccc(C)c1Nc1nc(N)c(C(=O)c2ccc(OC)cc2)s1", "activity change, negative = inhibition": "inactive: -29%"},
      {"compound": "CN1CCN(C2(CNC(=O)c3ccc([N+](=O)[O-])cc3)CCCCC2)CC1", "Potency": "inconclusive: 2.82 µM [inhibitor, partial curve, poor fit]"},
      {"compound": "CCN(CC)c1ccc(/C=N/NC(N)=S)cc1", "Potency": "inconclusive: 20 µM [inhibitor, partial curve, poor fit]"},
      {"compound": "CCC1(c2ccccc2)NC(=O)N(NC(=O)c2nn(-c3ccccc3)c(=O)c3ccccc23)C1=O", "note": "(stereo not drawn)", "Potency": "inconclusive: 39.8 µM [inhibitor, single point]"},
      {"compound": "CCCCNC(=O)COc1c(Cl)cc(Cl)c2ccc(C)nc12", "Potency": "inconclusive: 25.1 µM [inhibitor, single point]"},
      {"compound": "COc1ccc(CNC(=O)CCC2N=C3c4ccccc4N=C(SCc4ccc(F)cc4)N3C2=O)cc1", "note": "(stereo not drawn)", "Potency": "inconclusive: 28.2 µM [inhibitor, partial curve, poor fit]"},
      {"compound": "COc1ccc(OC)c(NC(=O)c2c(NCc3ccc(OC)c(OC)c3)sc3c2CCC(C)C3)c1", "note": "(stereo not drawn)", "Potency": "inconclusive: 25.1 µM [inhibitor, partial curve, poor fit]"},
      {"compound": "COc1cccc(-c2nc(-c3nnn4c3COC(c3ccccc3Cl)C4)no2)c1OC", "note": "(stereo not drawn)", "Potency": "active: 14.1 µM"},
      {"compound": "COc1cc(Cl)c(C)cc1NC(=O)Cn1ccn2nc(-c3ccccc3)c(CO)c2c1=O", "Potency": "active: 15.8 µM"},
      {"compound": "CCN1CCOC(=O)C1CC(=O)Nc1ccc(C)c(Cl)c1", "note": "(stereo not drawn)", "Potency": "inconclusive: 14.1 µM [inhibitor, partial curve, poor fit]"},
      {"compound": "Nc1c(C(=O)Nc2cccc(F)c2)sc2nc(-c3cccs3)ccc12", "Potency": "inconclusive: 12.6 µM [inhibitor, partial curve, poor fit]"},
      {"compound": "CC(=O)N1CCCN(CC[C@H]2CN(C(=O)c3ccc(F)cc3)CC[C@H]2CC(=O)O)CC1", "activity change, negative = inhibition": "inactive: 9.13% [at 86.2 µM]"},
      {"compound": "COc1cc(CNC(=O)Cc2ccsc2)ccn1", "activity change, negative = inhibition": "inactive: 11%"},
      {"compound": "Cc1ccc2nc(NC(=O)c3ccc(S(=O)(=O)N4CCCc5ccccc54)cc3)sc2c1", "Potency": "inconclusive: 15.8 µM [inhibitor, partial curve, poor fit]"}
    ]}
  ]
}
